# Results as given in paper PMC10668032.
# Some of the results follow. At the low end of the ranking the order means little.
# Target: SIX1 homeodomain (reference allele) (UniProt Q15475)
# Assay: universal protein binding microarray
# Conditions: Universal all-10-mer PBM (8x60K, AMADID 030236), 300 nM GST-tagged protein, Alexa Fluor 488 anti-GST; buffer, salt, pH and temperature not stated; high values mean tight binding; most listed sequences are background and not binding sites; double strand, one strand shown
row,Sequence,binding signal [E-score]
1,AGCCGGAA,-0.0791
2,CATTCCCA,-0.139
3,GATTGAAC,-0.00835
4,ATATCCCA,0.418
5,AACGAGTG,-0.0175
6,CTACCATC,-0.109
7,CAACCGCG,9.5e-05
8,AAAAACCC,-0.167
9,GTAGAAGA,0.115
10,ACGTGGAT,0.284
11,AGATACTA,0.316
12,ATACTTCC,0.241
13,AACTCACT,-0.169
14,CAAGCGGG,0.0208
15,CGCGAGGA,-0.0718
16,GAGGCTTA,-0.16
17,TAAACGTA,0.0346
18,GTTTCCCA,-0.122
19,ACAAAAAC,-0.277
20,GCAGTGAC,-0.257
21,CGCCTGTA,-0.124
22,ATCTTATC,0.228

row,Sequence,binding signal [E-score]
1,ATGCAAGC,-0.0563
2,ATGACTCC,-0.0145
3,GACGTAAC,-0.181
4,ACCTAGGT,0.0332
5,ATTCGTAA,-0.199
6,GCGACAGA,0.0181
7,ACGAGCGA,0.0308
8,GCACGCCC,-0.187
9,CGGCAAAG,-0.107
10,ACGAGCAG,-0.0488
11,AGGTTCCA,-0.178
12,ATGTGCAG,-0.104
13,ACTGTGCC,-0.255
14,ACTGATCA,0.181
15,AACGCCGT,-0.172
16,AATACGAC,0.18
17,ACGATAGC,0.217
18,ATATCGTA,0.402
19,AATAAGAC,-0.0461
20,GGAGAATA,0.235
21,AGACGCAT,0.136
22,ACACATCT,0.118

row,Sequence,binding signal [E-score]
1,ACTGTGAT,0.211
2,ATCAGCAA,0.0994
3,GTAGTGAA,-0.079
4,ATGTGCGG,0.0119
5,CCATAACC,-0.0643
6,TATTTTCA,-0.067
7,GCTAATCA,-0.0282
8,CACCCGAA,0.193
9,CCTTAGGA,0.114
10,CATCATGC,-0.027
11,GACGATGA,0.00309
12,ACACATAA,-0.137
13,AAACTTTC,-0.265
14,CACAAGCG,-0.142
15,AGCCGTGA,0.0895
16,AGTTCGTC,-0.159
17,AAGTTTCT,-0.249
18,AATCGAGG,-0.0855
19,CGTGAGCC,0.0957
20,GCGGGGAC,-0.034
21,ACAGTGTG,-0.178
22,AGAATGAG,0.00948

row,Sequence,binding signal [E-score]
1,GCAATTAC,-0.178
2,CATTCCTA,0.0158
3,CGCTCCGC,-0.278
4,AAAGCACC,-0.273
5,ACTTCATA,0.00632
6,CCACCAGC,-0.0398
7,AGAGCTTG,-0.152
8,GGTCCCTA,-0.0369
9,CTCTTTAA,-0.239
10,AAGCACCA,-0.173
11,GCTAGCAC,0.0172
12,CGGCTGGC,-0.176
13,CAACTATC,0.168
14,AGGGGTGC,-0.108
15,GCTATATA,0.253
16,CATTTTGC,-0.205
17,AGCGGTGC,-0.181
18,AATTTTCA,-0.0275
19,CGTAGCGC,-0.251
20,CACATATC,0.404
21,CAAACCGA,0.0141
22,TAATGGGA,-0.227

row,Sequence,binding signal [E-score]
1,CGCCGCCC,-0.105
2,CACGGGAG,-0.203
3,CCAACGAC,-0.266
4,GTCGTCAC,-0.211
5,GGCTGGGA,0.0237
6,ACCCGTCT,0.0871
7,GAAATTTC,-0.399
8,ATTCTCAC,0.106
9,ATGCGCGA,-0.0746
10,TGACACCA,0.466
11,AAGAAGGC,-0.137
12,CTCTGACC,-0.253
13,AGTAATTC,-0.146
14,CCGGCAAC,0.00139
15,CAACTTCA,-0.164
16,ACCCATAT,0.379
17,GACGAATA,0.0237
18,CAGAGGAC,-0.0905
19,CCGGCTCG,0.15
20,CCGCCTTC,-0.0903
21,CGGAGGCC,-0.125
